The text below walks through data of the supplement of paper PMC12645437, “Orthogonal IMiD-Degron Pairs Induce Selective Protein Degradation in Cells” (ACS Chemical Biology, 2025).

The list shows a part of the results.
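Note: jurkat cells carrying a lentiviral library of mutant zinc finger degrons fused to EGFP plus mCherry, mCherry+ cells FACS sorted, degron abundance counted by next-generation sequencing.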

The target of this assay is no compound (DMSO). Kind of assay: log2 fold change of degron read counts, EGFP-low vs EGFP+ sorted cells; higher = lower degron-EGFP level without compound (poor expression or instability). The note with it: compound: DMSO control; 18 h.
Turning to FCCNQCGRPFTQKGNLLRHIKL, the “log2 fold change of degron read counts” value is 0.271.

For FICPICGRQFTQKGNLLRHIKL, the “log2 fold change of degron read counts” value is -0.466.

Turning to FCCPICGAQFTQKGNLLRHIKL, the “log2 fold change of degron read counts” value is 0.436.

Turning to FFCNQCGANFTQKGNLLRHIKL, the “log2 fold change of degron read counts” value came to 0.147.

As for FACEQCGAGFTQKGNLLRHIKL, the “log2 fold change of degron read counts” value is -3.27.

Consider FICDQCGATFTQKGNLLRHIKL, for which the “log2 fold change of degron read counts” value is -2.05.

With FACEQCGAYFTQKGNLLRHIKL, the “log2 fold change of degron read counts” value is -1.24.

For FGCPVCGAPFTQKGNLLRHIKL, the “log2 fold change of degron read counts” value was 0.129.

In the case of FICEICGRYFTQKGNLLRHIKL, the “log2 fold change of degron read counts” value is -0.377.

Take FECEICGHHFTQKGNLLRHIKL: the “log2 fold change of degron read counts” value was -1.88.

For the sequence LECEICGFDCTQKGNLLRHIKL, the “log2 fold change of degron read counts” value was -1.93.

As for FACDICGARFTQKGNLLRHIKL, the “log2 fold change of degron read counts” value is -0.632.

Regarding FDCEICGRFFTQKGNLLRHIKL, the “log2 fold change of degron read counts” value is 0.858.

As for FDCPICGHCFTQKGNLLRHIKL, the “log2 fold change of degron read counts” value was -0.563.

As to FGCPQCGADFTQKGNLLRHIKL, the “log2 fold change of degron read counts” value was -1.34.

For the sequence FDCSVCGHHFTQKGNLLRHIKL, the “log2 fold change of degron read counts” value was -0.274.

Turning to LWCPICGFFCTQKGNLLRHIKL, the “log2 fold change of degron read counts” value was 3.79.

In the case of LFCEICGFICTQKGNLLRHIKL, the “log2 fold change of degron read counts” value came to 2.17.

Take LVCNQCGFFCTQKGNLLRHIKL: the “log2 fold change of degron read counts” value came out at 1.92.

Regarding FRCEVCGASFTQKGNLLRHIKL, the “log2 fold change of degron read counts” value was -1.53.

Regarding FKCNICGASFTQKGNLLRHIKL, the “log2 fold change of degron read counts” value is -0.227.

Regarding FYCEICGAWFTQKGNLLRHIKL, the “log2 fold change of degron read counts” value is -0.085.

For FCCPICGRYFTQKGNLLRHIKL, the “log2 fold change of degron read counts” value came to 0.442.

On to FNCEICGHGFTQKGNLLRHIKL, for which the “log2 fold change of degron read counts” value is -0.634.

On to FTCPICGAQFTQKGNLLRHIKL, for which the “log2 fold change of degron read counts” value was -0.366.

As to FLCNQCGRKFTQKGNLLRHIKL, the “log2 fold change of degron read counts” value is -0.503.

As to FICPICGRRFTQKGNLLRHIKL, the “log2 fold change of degron read counts” value was -0.104.

FWCEICGHQFTQKGNLLRHIKL: the “log2 fold change of degron read counts” value was -0.431.

Turning to FNCDQCGANFTQKGNLLRHIKL, the “log2 fold change of degron read counts” value is -2.74.

Take FQCPICGASFTQKGNLLRHIKL: the “log2 fold change of degron read counts” value is -0.299.

With LVCPICGFPCTQKGNLLRHIKL, the “log2 fold change of degron read counts” value worked out at 1.8.

As for FFCEVCGAPFTQKGNLLRHIKL, the “log2 fold change of degron read counts” value is -0.729.

FTCEICGAEFTQKGNLLRHIKL: the “log2 fold change of degron read counts” value was -2.11.

In the case of FCCEICGRAFTQKGNLLRHIKL, the “log2 fold change of degron read counts” value is -1.69.

On to LACPICGFGCTQKGNLLRHIKL, for which the “log2 fold change of degron read counts” value worked out at 0.859.

For the sequence LCCNQCGFRCTQKGNLLRHIKL, the “log2 fold change of degron read counts” value is 0.55.

In the case of FICDICGALFTQKGNLLRHIKL, the “log2 fold change of degron read counts” value was -0.119.

As to LICEICGFDCTQKGNLLRHIKL, the “log2 fold change of degron read counts” value was -0.474.

For the sequence LNCEICGFPCTQKGNLLRHIKL, the “log2 fold change of degron read counts” value is 0.133.

For FLCPICGRFFTQKGNLLRHIKL, the “log2 fold change of degron read counts” value stood at 1.07.

As for FDCEVCGAGFTQKGNLLRHIKL, the “log2 fold change of degron read counts” value is -0.913.

As to LFCNQCGFNCTQKGNLLRHIKL, the “log2 fold change of degron read counts” value was determined as 0.647.

For FYCDICGACFTQKGNLLRHIKL, the “log2 fold change of degron read counts” value was -0.311.

FSCNQCGAQFTQKGNLLRHIKL: the “log2 fold change of degron read counts” value is -0.699.

As for FRCDQCGATFTQKGNLLRHIKL, the “log2 fold change of degron read counts” value was -1.26.

Take FSCDICGAMFTQKGNLLRHIKL: the “log2 fold change of degron read counts” value was -0.0651.

As to FSCDQCGANFTQKGNLLRHIKL, the “log2 fold change of degron read counts” value is -1.48.

On to FLCPICGADFTQKGNLLRHIKL, for which the “log2 fold change of degron read counts” value is -0.0975.

With FKCEICGRWFTQKGNLLRHIKL, the “log2 fold change of degron read counts” value is -1.11.

For the sequence FKCPQCGAFFTQKGNLLRHIKL, the “log2 fold change of degron read counts” value is -0.579.
